From the supplement of paper PMC3334620
Whole data set: some 33,000 sequences, median “E-score (-0.5 to 0.5)” near -0.035, cut for the highest 2% near 0.35. This is one part of the list.

target: T1, Pdr3 (UniProt P33200); test: PBM E-score (8-mer binding enrichment) (E-score (-0.5 to 0.5)); higher = stronger / more preferred TF binding; most listed sequences are background and not binding sites; settings: protein concentration: 200 nM; construct: GST-full length
T1 sequence: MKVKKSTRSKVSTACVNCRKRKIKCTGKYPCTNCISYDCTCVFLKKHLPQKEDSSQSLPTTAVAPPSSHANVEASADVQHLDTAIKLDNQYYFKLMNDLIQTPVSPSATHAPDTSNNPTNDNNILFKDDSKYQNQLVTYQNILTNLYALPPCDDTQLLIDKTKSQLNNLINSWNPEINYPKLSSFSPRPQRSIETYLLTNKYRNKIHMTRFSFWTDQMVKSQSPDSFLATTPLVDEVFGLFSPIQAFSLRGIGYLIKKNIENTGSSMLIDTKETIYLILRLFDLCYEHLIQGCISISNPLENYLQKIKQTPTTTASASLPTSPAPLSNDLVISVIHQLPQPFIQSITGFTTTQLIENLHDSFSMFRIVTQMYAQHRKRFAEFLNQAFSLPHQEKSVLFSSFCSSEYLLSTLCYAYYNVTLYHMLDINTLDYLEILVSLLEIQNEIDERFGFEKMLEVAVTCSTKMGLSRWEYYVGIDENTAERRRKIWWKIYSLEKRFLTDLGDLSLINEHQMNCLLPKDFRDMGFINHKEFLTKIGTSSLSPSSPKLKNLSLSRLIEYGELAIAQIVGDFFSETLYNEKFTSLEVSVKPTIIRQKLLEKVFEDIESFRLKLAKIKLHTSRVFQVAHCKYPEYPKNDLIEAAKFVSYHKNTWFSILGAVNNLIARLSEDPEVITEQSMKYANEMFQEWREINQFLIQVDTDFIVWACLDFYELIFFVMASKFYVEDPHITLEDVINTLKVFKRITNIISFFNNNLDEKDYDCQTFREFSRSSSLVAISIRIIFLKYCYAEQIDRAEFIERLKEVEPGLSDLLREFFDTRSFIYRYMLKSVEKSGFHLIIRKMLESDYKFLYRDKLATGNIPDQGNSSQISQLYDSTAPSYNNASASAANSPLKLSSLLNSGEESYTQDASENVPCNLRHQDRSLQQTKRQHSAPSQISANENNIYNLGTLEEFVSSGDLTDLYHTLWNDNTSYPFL
Procedure, shortened: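 PURExpress in vitro transcription/translation supplied GST-tagged yeast transcription factors, either full-length or DNA-binding domain. Applied at about 100-200 nM to universal all-10-mer Agilent arrays double-stranded by primer extension, the bound protein was detected with fluorescent anti-GST. E-scores, modified Wilcoxon-Mann-Whitney statistics, were given by the Universal PBM Analysis Suite to ungapped eight-base words pooled with their reverse complements after masliner normalisation.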

Sequence	PBM E-score
CAGTAGAC	-0.109
GAATTAAC	-0.0501
GGTGGTTA	0.058
CTGGTTGC	0.152
AACACAGA	-0.088
AAAATTGG	-0.0852
GGGCTCGA	-0.161
CCGTTGTC	0.284
ACGGCTAT	0.0518
GAGCCTCA	-0.109
GGTTGCAC	0.00641
GCCGGAAA	0.42
TAGTCACA	-0.127
CTAAGGAG	-0.254
CCCGTATC	0.146
CCCCCGAA	-0.0602
CATCCTAC	-0.0647
AGCCACTG	0.0181
GAATCTAA	0.0898
AGCTGGCC	0.0998
GATAGGGC	0.0824
GCGATTTA	0.0969
AAAGGAAT	0.0349
AGTGATTA	0.0772
AATCTGAC	-0.128

Sequence	PBM E-score
CCCTCCGA	0.155
GGCTCTCA	-0.113
CATACTTA	-0.167
CAAGTCTA	-0.264
TAGGGCGA	-0.131
TAATGAGA	-0.153
CCTGGTCC	0.102
ATCCCCAA	-0.0668
CGACTATC	0.0465
ATAGAAAT	0.0946
CTGTGTCC	0.0118
CTTTTCTC	-0.181
ACTCTAGC	-0.299
GAGCACGC	-0.0355
AAAGTCGA	0.068
AACACGCT	-0.0239
AATCATAC	0.0206
ACCGTCTA	-0.0496
CCTATTCG	-0.061
CTCTGATA	-0.0373
CGCGCAGC	0.0673
ACTCGGTA	-0.164
AAGATCAG	-0.157
TAGCCCTA	-0.226
CGATGTCA	-0.0382

Sequence	PBM E-score
AACGCTAG	-0.229
CCATCATC	-0.157
ACGTCTCT	-0.203
AGAACGAG	-0.0522
TCCAGGCA	-0.0729
AAGACACA	-0.165
GTCCCGAA	0.0896
AAATATCT	0.109
CAGCATGA	-0.184
ACCGGGTA	0.154
GCTCACAA	-0.00352
ATATATAT	0.294
ATATCAAC	0.0435
CGTCCAAC	-0.0891
CTAGGCTC	-0.247
ACCGCGTG	0.0468
CACCCGCC	0.332
CGGGAAGC	0.282
GGAACTAC	0.212
GAAAAACA	-0.153
CCCTGGCA	0.0222
TAGGAGGA	-0.174
ACCTCAAA	-0.00213
ACTTACGA	0.134
AGGGTGGA	-0.0692

Sequence	PBM E-score
ATAGTATG	0.142
ATAACCTC	-0.0805
CAGTGTAG	-0.166
CCAAGTAA	-0.011
GTGCCCAC	-0.0988
CTTTTAGA	-0.133
GACGAGTA	-0.0519
AGAGTTAT	-0.0671
GACACAGC	-0.0237
CCCCCGCC	0.0181
CTTACGGC	-0.0318
AAACCGGA	0.346
AACCTTTA	-0.186
CCGTCCTC	0.151
GCTTTGCA	-0.189
CTGGCGCA	-0.204
AACACCCC	0.0302
CAAGAAAC	0.113
CGGTGTTA	0.182
ATGCGGGC	-0.0361
ACATCAGT	0.0466
GTCCTGCA	-0.258
ACATTTCG	-0.127
ATGGTCCG	0.387
CCCCCCGA	-0.0725

Sequence	PBM E-score
CGTACAAC	-0.0261
ATGCACGC	0.0919
ACCAGGCT	-0.4
GGTTGGAA	0.0933
TGCCCACA	-0.234
GCCCCGTA	-0.134
GGCCACTA	-0.0808
CAACCCAA	-0.113
TCCTACAA	0.00772
AGTCGCAG	-0.123
GAAAGTTA	0.0742
GCCCTAGA	-0.289
CATGAGCG	0.0244
GACCTATC	0.119
AATAAACT	0.0459
AAGCACGC	-0.0203
ATGAGTAG	0.024
CGAGACAG	0.021
ACGTTGTC	-0.0301
CCTCAGTC	-0.131
GATGAAAA	0.0909
CTTCAACA	-0.11
AAATGCTC	0.0595
CTTCTTAA	-0.101
AGGGCGCG	-0.0829

Sequence	PBM E-score
AGCAATTC	0.0731
TGGGCTAA	-0.0141
AACGGTCG	0.0464
CCTCGGCG	0.376
AGGAGCCC	-0.0219
AAGTCGAC	0.156
AAAACACA	-0.0183
AAAAAAAG	0.0406
ATTCCATA	0.154
AAACTCAG	-0.121
CGCCCGAA	0.117
CCACCATC	-0.0466
CGACGGCC	0.0868
ACGAGCCG	0.134
ACAAGCTA	-0.252
GATCGCCC	0.00089
ACTAGGTC	0.0375
CGATTTAC	-0.00669
AATGTTTA	-0.127
ATTACCCA	-0.0954
TCTTATCA	-0.00735
ATGCAGCA	0.00559
CAACGGTG	-0.0539
CACCGCGA	0.032
ACGTCAAT	-0.149

Sequence	PBM E-score
AAAATTTC	0.00912
ACGGGGTG	0.0711
TGAATTAA	0.00397
AGATTGGG	0.0328
CCTTCACC	-0.0792
AGGAATTC	-0.00951
AAAACGCT	-0.241
CAACTATA	-0.194
ACCGTCCA	0.179
AGACACGC	-0.103
AATGGTAT	0.0151
GAGACGCC	0.0213
GTAACTCA	-0.141
TCCAGACA	-0.0374
GACTTGTA	-0.122
AGCCCAGG	-0.269
CCTCCTCA	-0.199
AACTGAGT	-0.0514
AAAGTGCA	-0.0229
ACCCATAC	-0.155
ACTGCCCT	-0.0837
AAAAAGGC	-0.00478
